Whole data set: some 33,000 sequences, median “E-score (-0.5 to 0.5)” near -0.013, cut for the highest 2% near 0.3. The list shows a part of the results.
target: T1, Msn1 (UniProt P22148); experiment: PBM E-score (8-mer binding enrichment) (E-score (-0.5 to 0.5)); higher = stronger / more preferred TF binding; most listed sequences are background and not binding sites; settings: protein concentration: 200 nM; construct: GST-full length
T1 sequence: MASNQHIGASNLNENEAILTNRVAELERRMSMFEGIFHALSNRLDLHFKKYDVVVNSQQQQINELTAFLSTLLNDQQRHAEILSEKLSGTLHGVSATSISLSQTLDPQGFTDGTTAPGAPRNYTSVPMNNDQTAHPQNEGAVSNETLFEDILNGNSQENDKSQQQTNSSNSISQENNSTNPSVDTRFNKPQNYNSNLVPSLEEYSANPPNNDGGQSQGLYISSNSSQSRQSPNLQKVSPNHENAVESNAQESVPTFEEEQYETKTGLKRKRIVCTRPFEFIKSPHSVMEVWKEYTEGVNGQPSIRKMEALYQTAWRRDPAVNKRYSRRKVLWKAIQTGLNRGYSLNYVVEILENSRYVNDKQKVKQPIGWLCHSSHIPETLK
Method in brief: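 Using PURExpress in vitro transcription/translation, GST-tagged yeast transcription factors were made in full-length or DNA-binding-domain form. These were applied at about 100-200 nM to double-stranded universal all-10-mer Agilent arrays, and bound protein was detected with fluorescent anti-GST. Scans were normalised with masliner before the Universal PBM Analysis Suite assigned E-scores to ungapped eight-base words pooled with their reverse complements.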

| Sequence | PBM E-score |
| --- | --- |
| ACCGGGCT | -0.146 |
| AGATACAC | 0.0785 |
| CATCACAC | -0.0894 |
| AGATTGCT | -0.00224 |
| CACCATCC | -0.249 |
| TGGACCAA | 0.0483 |
| ATAGACAC | 0.245 |
| CCAACCGG | -0.104 |
| AGTTCCTC | -0.0834 |
| ATTTCGTA | 0.0958 |
| AACGTTCC | -0.184 |
| GGAGTTTA | 0.0282 |
| CTTGAGAA | -0.0327 |
| GCTGGGTA | -0.24 |
| AACAGTAT | 0.0551 |
| CCATTGAG | 0.0358 |
| ACTTATGG | -0.0838 |
| ATACCAAA | 0.149 |
| CCGATTTC | -0.0797 |
| AACTTCTC | 0.133 |
| CCCCGCCC | -0.015 |
| ACAGATAG | 0.116 |
| ATGCACTC | -0.179 |
| TACTATGA | 0.145 |
| AGTCGGAC | 0.3 |

| Sequence | PBM E-score |
| --- | --- |
| GTTGGACA | 0.437 |
| ATAGAAAG | -0.103 |
| ATACCGCG | 0.0616 |
| ATTTATTG | 0.128 |
| GAGCGCTC | -0.219 |
| ACTTATAC | 0.0919 |
| AAGTAAGT | 0.0218 |
| AACGGCAG | -0.0524 |
| GATCTCGC | 0.0143 |
| CAATTCTC | 0.069 |
| ATTGTGTC | 0.314 |
| CTGCCGCC | -0.265 |
| GTTGCCTA | -0.138 |
| GACCATCA | -0.0992 |
| CAAGTTGA | -0.135 |
| AAAGTTAA | 0.182 |
| CGCGGGAC | 0.129 |
| CATGGCAC | -0.179 |
| CGTATCGA | -0.0032 |
| CGTGGGCA | -0.0861 |
| CCACTCGA | 0.0135 |
| AACATTGA | 0.117 |
| CGTGAGAA | -0.116 |
| CACTTCCG | -0.0321 |
| GTGCGACA | 0.0786 |

| Sequence | PBM E-score |
| --- | --- |
| AGGAATGA | -0.0321 |
| ACGCAAGT | 0.0394 |
| AGTTAGTC | 0.0804 |
| AATTGCGC | 0.106 |
| CATGGTAA | 0.055 |
| CTTTCCAC | -0.0997 |
| ACGTATAC | -0.115 |
| ACTTCCCG | 0.00833 |
| AGTTAGGA | 0.171 |
| GGCTAGTA | 0.102 |
| ACCCTCGT | -0.241 |
| CTACCGAA | -0.0333 |
| CTCCAAGA | 0.0444 |
| CTGGAGTC | -0.182 |
| CGCCTAAC | 0.0368 |
| CAACAATA | 0.163 |
| ACCCCCCT | -0.325 |
| TACTGTCA | 0.0239 |
| AGGATTCA | -0.0937 |
| ATACTCCG | 0.193 |
| AACGAGTG | -0.0417 |
| TAACAGGA | 0.167 |
| CGAAATGC | 0.209 |
| GCCGATAC | 0.0549 |
| CACGCATC | 0.0651 |

| Sequence | PBM E-score |
| --- | --- |
| GCTAGTGA | -0.00743 |
| CGGCGCAG | -0.0403 |
| AGTACCAC | 0.0226 |
| ACCCTCAT | -0.193 |
| CCGGTTAG | -0.0418 |
| CTAAGAAG | 0.0808 |
| GAGCGACC | -0.092 |
| CAAACCCA | 0.193 |
| CGGACAAG | 0.418 |
| CACTCCCG | -0.221 |
| AACACGCC | -0.12 |
| GGATAAGA | -0.0955 |
| AGTAAATC | 0.0555 |
| GAAATGTC | 0.487 |
| AAGATTGA | -0.0967 |
| CGTATCCA | -0.0727 |
| GAATAGTA | 0.172 |
| ACTGAGAA | 0.0683 |
| GCAACCCC | -0.177 |
| ACGGACTC | 0.00234 |
| CGGGATTA | 0.00663 |
| ATAAATGG | 0.0876 |
| ATGACGAG | -0.0459 |
| ACATTTAT | 0.319 |
| GCTCTTTA | -0.0377 |

| Sequence | PBM E-score |
| --- | --- |
| ACCCACGT | -0.0473 |
| CTCTCTGC | -0.165 |
| AAACGGTA | 0.207 |
| AGCATTAG | -0.0475 |
| ATCGTTGA | -0.0156 |
| ATCGTCAA | 0.114 |
| CACCTTAG | -0.138 |
| CGTCTTGA | 0.24 |
| ACGATGGC | -0.107 |
| AACAGAAA | 0.00656 |
| GTACACAA | 0.245 |
| GTACAACA | 0.223 |
| ATACATGC | -0.0108 |
| CGCGTTCA | 0.0682 |
| CATGCCGG | 0.114 |
| CTATGACA | 0.375 |
| GCAGGAAC | -0.0846 |
| ATGGTTTA | 0.061 |
| CCATTATA | 0.135 |
| CTCGTTGC | 0.0629 |
| TACTGGGA | 0.139 |
| AGCGAGGG | -0.293 |
| AGTGCGAC | -0.0454 |
| CGAAAGAA | 0.0235 |
| ACCCGAGG | -0.0428 |

| Sequence | PBM E-score |
| --- | --- |
| TGTGTTAA | 0.1 |
| CTCTTGTC | 0.339 |
| AGATTTAG | 0.0382 |
| TACATTAA | 0.277 |
| GTGTAATA | 0.0143 |
| ATGGCCAA | 0.0575 |
| GCGGGCCA | -0.199 |
| CAAGGGCA | -0.0151 |
| ACGCCATC | -0.0776 |
| ATGAGACC | -0.0403 |
| ATCAAAGG | 0.00205 |
| CCACCGAA | 0.0835 |
| ATTCATGA | 0.157 |
| AATTATCC | 0.137 |
| ACATGGTA | 0.0751 |
| GACAAGCA | 0.278 |
| AAGCTCGT | 0.0392 |
| ATTCTTTC | 0.0866 |
| GAGCGAGA | 0.191 |
| CACTGGAA | -0.137 |
| ACTGGAAA | -0.0354 |
| GGCCTGAC | -0.0709 |
| ACATTAGG | 0.138 |
| CGAGGGTC | -0.218 |
| GAGGCGAA | 0.016 |

| Sequence | PBM E-score |
| --- | --- |
| CTTGACAA | 0.215 |
| ATGTGGGA | 0.00864 |
| GAACATTC | 0.0801 |
| AATTTGCG | 0.058 |
| GCTGTACA | -0.0116 |
| TCACCTGA | -0.112 |
| ATCGATCA | 0.0526 |
| ACAGAAGT | 0.109 |
| CCATGGAC | 0.252 |
| CCGTAAAC | -0.0692 |
| GCCAGCCC | -0.319 |
| AGGCGACC | -0.0909 |
| GATCATCA | -0.0872 |
| CGCCGATA | 0.112 |
| ACGCCTCT | -0.177 |
| ACGAAGGC | -0.198 |
| ACCGAAGC | 0.0707 |
| ATCGCGCG | 0.0316 |
| CCGCAGGA | -0.352 |
| CGAGCCTC | -0.168 |
| AGCACGCT | -0.279 |
| ACTCTACA | -0.115 |
